Here are results for 85 compounds from PubChem BioAssay AID1346428 (National Center for Advancing Translational Sciences (NCATS), 2018).

In all, about 48,000 compounds went through this assay and about 1,200 (2.5%) were called active. Not shown: some 2% with an inconclusive outcome.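 How the source made its calls: active means activation of at least 60% and not above a set upper limit (about 1 call in 100 departs from these limits); inconclusive means activation of 40% to 60%, or above that upper limit; inactive means activation under 40%.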 The list shows a part of the results.

Sequence of UniProt O75388 (O75388 whole entry, looked up): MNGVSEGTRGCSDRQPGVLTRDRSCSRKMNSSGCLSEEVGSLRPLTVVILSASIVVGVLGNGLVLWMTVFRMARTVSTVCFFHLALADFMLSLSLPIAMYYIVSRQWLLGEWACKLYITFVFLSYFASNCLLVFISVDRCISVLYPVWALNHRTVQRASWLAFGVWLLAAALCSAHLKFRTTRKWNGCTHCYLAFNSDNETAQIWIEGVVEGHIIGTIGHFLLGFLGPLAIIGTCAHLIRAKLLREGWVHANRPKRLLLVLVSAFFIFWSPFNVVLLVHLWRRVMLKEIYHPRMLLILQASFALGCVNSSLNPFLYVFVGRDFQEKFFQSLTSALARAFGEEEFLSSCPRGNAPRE

For the assay, the target named is Probable G-protein coupled receptor 32 (Homo sapiens) (UniProt O75388). Description: qHTS for Agonists of Human Resolvin D1 Receptor DRV1. Further: 0% is about no effect. The settings on record: CHO-K1 GPR32 beta-arrestin PathHunter luminescence, 90 min; at 76.9 µM; stronger effect = higher value; zero percent set by DMSO-only wells. The gist of the method:
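Cells are plated overnight, treated with compounds in DMSO for 90 minutes at 37 °C, and developed with PathHunter detection reagent for 1 hour before luminescence is read; signal reflects beta-arrestin binding to GPR32 in engineered CHO-K1 cells.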
For orientation: Quantitative high-throughput screening tests each substance at several concentrations.
`COc1ccc(S(=O)(=O)Nc2nnc(CC(C)C)s2)cc1`: the activation is inactive: 6.79%.
The figure for `Cc1cccc(NC(=O)c2cc(-c3ccc4c(c3)OCCO4)on2)c1` is inactive: 20.8%.
Under `Cc1ccc(NC(=O)CSc2nc3ccccc3nc2Cc2ccccc2)c(C)c1` stands inactive: -10.2%; under `Cc1cc(NCc2ccccc2Cl)n2cnnc2n1`, inactive: 9.67%; under `CN(C)c1ccc(CNC(=O)C2CCN(S(=O)(=O)c3ccc4c(ccn4C)c3)CC2)cc1`, inactive: -2.66%.
Under `Cc1ccc(C)c(Nc2nn3c(=O)c4ccc(C(=O)NCCc5ccccc5)cc4nc3s2)c1` stands active: 74.1%; under `CCOC(=O)c1ccc(NC(=O)C(CC)Sc2nc3ncccc3o2)cc1` (stereo not given), inactive: -34%; under `Cc1ccc(N2CCN(C(=O)c3c4c(nc5ccccc35)C(=O)N(C3CCCCC3)C4)CC2)c(C)c1`, inactive: -5.72%.
With `Cc1ccc(C)c(N2CCN(C(=O)Cn3c(-c4cccs4)cc4ccccc43)CC2)c1`, the activation is inactive: -13%.
On to `CN(C)c1ccc2nc3ccc(=[N+](C)C)cc-3sc2c1`, for which the activation was inactive: -37.2%.
The figure for `CCN(C(=O)Cn1cc(S(=O)(=O)Cc2ccccc2Cl)c2ccccc21)c1ccccc1` is inactive: -15.9%; for `COCCCn1c(SCC(=O)NCc2ccccc2)nc2c(sc3ccccc32)c1=O` it is inactive: 5.85%.
The figure for `COc1ccc(C(=O)Nc2nc3c(s2)CCc2cc(OC)ccc2-3)cc1` is inactive: 15.8%.
As to `COc1ccc(C2C(=O)c3ccccc3C2=O)cc1`, the activation is inactive: 9.68%.
Under `Cc1ccc(-n2ncc3c(N4CCN(CCO)CC4)ncnc32)cc1Cl` stands active: 65.1%; under `CCCCNc1nc(Oc2ccc(OCC(N)=O)nn2)nc(N2CCOCC2)n1`, inactive: -14%; under `Cc1ccc(-n2c(SCC(=O)Nc3ccc4c(c3)OCO4)nc3c([nH]c4ccccc43)c2=O)cc1`, inactive: -37%.
As for `Cc1ccc(-c2cc(C(=O)NCc3cnn(C)c3)c3cc(Br)ccc3n2)cc1`, the activation is inactive: 4.38%.
Take `CCOc1cc(C2c3c(oc4ccc(F)cc4c3=O)C(=O)N2Cc2ccco2)ccc1O` (stereo not given): the activation is inactive: -7.07%.
As to `Cc1cccc(C(=O)N2CCc3cc(CNC(=O)Cc4ccc(F)cc4)ccc32)c1`, the activation is inactive: -4.39%.
Under `Cc1cc(Br)ccc1NC(=O)c1cn(C2CCCC2)c(=O)c2c1c1ccccc1n2C` stands inactive: 3.43%; under `Cc1ccc(Cc2nc3ccccc3nc2SCC(=O)NCc2ccc(F)cc2)cc1`, inactive: -22.6%.
Under `CCc1ccccc1N(C)C(=O)c1cnc(N2CCOCC2)c2ccccc12` stands inactive: -15.6%; under `CCC(=O)C1=C(c2cccc([N+](=O)[O-])c2)N(C(=O)CC)n2c(nnc2-c2ccccc2)S1`, inactive: -12.7%; under `COc1ccc(CCNc2ncnc3c2c(-c2ccccc2)cn3-c2ccc(F)cc2)cc1OC`, inactive: -43.4%.
For `CCOc1ccc(C2c3[nH]c4ccccc4c3CCN2C(=O)Cc2cccc(OCC)c2OCC)cc1` (stereo not given), the activation was inactive: -27.4%.
The figure for `Cc1ccccc1Cn1nnc2c(=O)[nH]c(C3CCN(C(=O)c4ccccc4)CC3)nc21` is inactive: -19%.
Turning to `CCOC(=O)c1cnc2ccc(C(=O)OC)cc2c1Nc1ccccc1CC`, the activation is inactive: -0.35%.
Take `COc1ccc(-c2nc3sc(CCNC(=O)c4cccc(C(F)(F)F)c4)c(C)n3n2)cc1`: the activation was inactive: 26.6%.
The figure for `Cc1cc(C)cc(-n2ccnc2SCC(=O)Nc2nc3ccccc3s2)c1` is inactive: -2.89%.
For `CCC(C(=O)NCc1ccccc1OC)n1nc(C)n2c(cc3sccc32)c1=O` (stereo not given), the activation is inactive: -1.35%.
Regarding `CCOC(=O)c1c(S(=O)(=O)NCC(=O)Nc2ccc(C)c(Cl)c2)c(C)n(C)c1C`, the activation was inactive: -10.8%.
As to `CSc1ncc(C(=O)NCc2ccccc2)c(-c2ccccc2)n1`, the activation was inactive: -16.8%.
Under `CC(C)Oc1ccc(CNC(=O)c2ccc(NC(=O)N3CCSc4ncccc43)cc2)cc1` stands inactive: 1.81%; under `COc1ccc(NC(=O)C2CCCN2S(=O)(=O)c2cccc3cccnc23)cc1OC` (stereo not given), inactive: -8%.
As to `CC(C)(C)n1cnc2cc(NCc3ccccc3Cl)ccc21`, the activation was inactive: -74%.
Under `COc1ccc(C2=NS(=O)(=O)N(C)C(C(=O)NCc3ccccc3)=C2)cc1OC` stands inactive: -15.8%; under `COc1ccc(-c2cc(C(=O)Nc3ccn(Cc4ccc(C)cc4)n3)no2)cc1OC`, active: 77.7%; under `CCc1ccc(NC(=O)C(=O)NCC(c2ccc3c(c2)OCO3)N2CCOCC2)cc1` (stereo not given), inactive: -1.79%.
`Cc1ccc(S(=O)(=O)c2nc(-c3ccccc3Cl)oc2N2CCCCCC2)cc1`: the activation was inactive: -4.36%.
Under `Cc1ccc(Cl)c(NC(=O)Nc2csc3c2CCCC3)c1` stands inactive: -5.95%; under `CCS(=O)(=O)N1CCC(n2c(C)nc3cccnc32)CC1`, inactive: -0.136%; under `Cc1ncc([N+](=O)[O-])n1CC(O)CCl` (stereo not given), inactive: -2.73%.
Under `CN1C(=O)c2ccccc2Sc2ccc(NC(=O)COc3ccccc3)cc21` stands inactive: -8.63%; under `COc1cc2oc(=O)c(CC(=O)N3CCCCC3)c(C)c2cc1OC`, inactive: 15.6%; under `CCOC(=O)c1nc(N2CCN(c3ccc(F)cc3)CC2)c2c(C)noc2n1`, inactive: -12.3%.
Under `CCCC(=O)N(c1ccc2oc(C)c(C(C)=O)c2c1)S(=O)(=O)c1ccc(C)cc1` stands inactive: -3.81%; under `COc1ccc(C(=O)/C=C/c2cn(CC(O)CN(CC(C)C)CC(C)C)c3ccccc23)cc1` (stereo not given), inactive: -3.48%.
With `CCn1c(=O)n(-c2ccc(F)c(Cl)c2)c(=O)c2c3c(sc21)CN(C(C)=O)CC3`, the activation was inactive: -5.62%.
With `Cc1ccc(C)c(CSc2cn(CC(=O)N3CCCCCC3)c3ccccc23)c1`, the activation is inactive: -8.88%.
The figure for `COc1cccc(N2C(=O)CSC23C(=O)N(Cc2ccccc2)c2ccccc23)c1` (stereo not given) is inactive: -31.7%.
As to `COCCNC(=O)c1ccc(-n2c(-c3ccccc3)cc3c2CCCCC3)cc1`, the activation was inactive: -14.3%.
Under `COc1ccc(NC(=O)CCCc2nnc3n(CCC(C)C)c(=O)c4sccc4n23)c(OC)c1` stands inactive: -1.33%; under `COc1ccc(-c2csc3nc(-c4ccc(F)cc4)oc(=O)c23)cc1`, inactive: -18.4%; under `Cc1ccc2oc(=O)c3cnn(CC(=O)N4CCN(c5cc(Cl)ccc5C)CC4)c3c2c1`, inactive: -5.82%.
The figure for `COc1ccc(CCNC(=O)Cn2c(=O)n(-c3cc(OC)c(OC)c(OC)c3)c(=O)c3ccccc32)cc1OC` is inactive: -7.71%; for `COc1cccc(CNc2nc3c(-c4ccccc4)nnn3c3ccccc23)c1` it is inactive: 8.33%; for `CCOc1ccc(NC(=O)c2cc(S(=O)(=O)N3CCCCC3)c[nH]2)cc1` it is inactive: 10.8%.
The figure for `CN1C(C(=O)Nc2ccccn2)=C(O)c2sccc2S1(=O)=O` is inactive: -50.3%; for `CC(CSC(=O)c1ccccc1)C(=O)N1C[C@@H](Sc2ccccc2)C[C@H]1C(=O)O` (stereo not given in full) it is inactive: -39.7%; for `CN(Cc1ccccc1)C(=O)CSc1nc2ccsc2c(=O)n1-c1ccc(F)cc1` it is inactive: -22.7%.
For `CCOc1ccc(CCNCc2c(C(=O)O)n(Cc3ccc(C)cc3)c3cc(OC)ccc23)cc1`, the activation was inactive: 6.5%.
With `COc1cccc(NS(=O)(=O)c2ccc3[nH]cc(C(=O)NCCc4ccccc4)c(=O)c3c2)c1`, the activation was inactive: 11.6%.
As to `COc1cccc(N2C(=O)N(Cc3ccc(C#N)cc3)c3ccccc3S2(=O)=O)c1`, the activation was inactive: -0.327%.
Under `COc1ccc(NC(=O)CCc2nnc3n(C)c(=O)c4sccc4n23)cc1Cl` stands inactive: 12.8%; under `CCn1cc(C(=O)NCCCN(CC(C)C)CC(C)C)c(=O)c2cc(S(=O)(=O)N(C)C3CCCCC3)ccc21`, inactive: -30.5%; under `O=S(=O)(c1ccccc1F)N1CCC(Oc2ccc(-n3cnnn3)cc2)CC1`, inactive: 18.3%.
The figure for `CCc1ccccc1NC(=O)Cn1c(=O)n(CC2CCC(C(=O)NCCc3ccccc3)CC2)c(=O)c2ccccc21` (stereo not given) is inactive: -6.85%; for `O=C(NCc1ccccc1Cl)c1cnc2sc(N3CCOCC3)nn2c1=O` it is inactive: -6.09%.
Under `CCC(=O)N1CCc2cc(Br)cc(S(=O)(=O)CCC(=O)Nc3ccc(C)c(C)c3)c21` stands inactive: -11.5%; under `COc1ccc(-c2noc(-c3ccc(NCc4cccnc4)c([N+](=O)[O-])c3)n2)cc1`, inactive: 1.75%; under `O=C(COCc1cc(-c2cccs2)on1)Nc1cccc(Cl)c1Cl`, inactive: -12.5%.
For `Cc1c(Cl)cccc1Nc1nn2c(=O)c3ccc(C(=O)NCCc4ccccc4)cc3nc2s1`, the activation is inactive: 3.6%.
As to `CCN(c1cccc(C)c1)S(=O)(=O)c1ccc2c(c1)NC(=O)CCS2`, the activation is inactive: -2.43%.
As to `COc1ccc(NC(=O)CN2C(=O)COc3ccc(S(=O)(=O)Nc4ccccc4)cc32)cc1OC`, the activation was inactive: -17.2%.
The figure for `CCOc1ccc(NC(=O)c2cc3c(n(-c4ccc(OC)cc4)c2=O)CC(C)(C)CC3=O)cc1` is inactive: -5.87%; for `CC(=O)c1cccc(NC(=O)c2cccn2-c2nnc(N3CCCCC3)s2)c1` it is inactive: -3.6%; for `COc1ccccc1Cn1c(CNS(=O)(=O)c2ccccc2Cl)nc2cccnc21` it is inactive: -28.6%.
As to `CCN(CC)CCOC(=O)C1(c2ccccc2)CCCC1`, the activation is inactive: 0.25%.
Under `COc1cccc(CNC(=O)C2CCN(c3nn4c(=O)cc(C)nc4s3)CC2)c1` stands inactive: 14%; under `O=C(NC1CC(=O)N(c2ccccc2)C1)c1ccc(Br)o1` (stereo not given), inactive: -3.49%.
Regarding `O=C(NCCCN1CCN(c2cccc(Cl)c2)CC1)Nc1ccccc1C(F)(F)F`, the activation was inactive: 10.5%.
Under `CCOC(=O)Cn1c(=O)oc2cc(S(=O)(=O)N3CCN(c4ccccc4F)CC3)ccc21` stands inactive: 1.04%.
Under `CCN(CC)C(=O)Cn1cc(SCC(=O)Nc2ccccc2F)c2ccccc21` stands inactive: -13.8%; under `COc1ccc(NC(=O)c2nnn(Cc3nc(-c4cc(OC)c(OC)c(OC)c4)oc3C)c2C)cc1`, inactive: 3.08%.
